Out of some 340,000 compounds screened, about 12,000 (3.5%) were called active. Inconclusive results, whose numbers are uncertain, are shown with a selection of clear calls. The call rests on the fitted dose curve; in most records, active means well fitted inhibition curve with a large enough effect; inconclusive means small, poorly fitted or top-dose-only effect, or another doubt; inactive means no such curve, though single readings can be large or run the other way. No potency is given beside an inconclusive call; the fits are too rough.
Assay: qHTS Assay for Inhibitors of Hepatitis C Virus (HCV)
Details: Huh7.5.1 HCVcc-Cre (HCVcc is cell-culture hepatitis C virus) infection, luciferase reporter, 44 h; series mostly up to 41.8 µM
Summary of the method: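 After 44 h co-culture of compound, cells and HCVcc-Cre (~0.5 moi), substrate is added for 15 min at room temperature and luciferase measured over 15 sec. Cells were seeded at 1,000/well and pre-cultured 4 h.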
Potency means the concentration at half of the fitted maximal effect; tags describe the fitted curve by direction and shape.

SMILES | Potency
O=C(NCc1cc(C(F)(F)F)ccc1Cl)c1cccc2c1C(=O)c1ccc(N3CCC(Cc4ccccc4)CC3)cc1S2(=O)=O | inconclusive [inhibitor, partial curve]
Cc1cc(Br)c(OCc2ccc(C(=O)N/N=C3\CC(=O)CC(C)(C)C3)cc2)c(Br)c1 | inconclusive [inhibitor, partial curve]
CC(=O)N[C@@H]1CC[C@@]2(O)[C@H]3Cc4ccc(O)c5c4[C@@]2(CCN3CC2CC2)[C@@H]1O5 | inactive
CC(C)n1ncc2c(C(=O)N3CCN(c4ccc(F)cc4)CC3)cc(-c3ccccc3)nc21 | inactive
Cc1ccc(CN2CCN(CC(=O)NCCCN3CCN(c4ccc(F)cc4)CC3)C2=O)cc1 | active: 8.91 µM
CCOc1cc(NC(=O)c2cccs2)c(OCC)cc1NC(=O)CCC(=O)NCC1CCCO1 (centres undefined) | inactive
Cc1cc(N2CCN(C)CC2)nc2ccc(NC(=O)CCC3CCCC3)cc12 | inconclusive [inhibitor, single point]
Cc1ccc(C(=O)Nc2nc(-c3ccco3)c(-c3ccco3)s2)o1 | inconclusive [inhibitor, single point]
COC(=O)[C@H](Cc1ccccc1)NC(=O)O[C@@H]1C(=O)c2cc(Br)ccc2O[C@H]1c1cccc(OC)c1 | inconclusive [inhibitor, full curve, poor fit]
CC(C)(Oc1ccc(Cl)cc1)C(=O)Nc1ccncc1 | active: 11.2 µM
Cc1ccc(S(=O)(=O)N2CCOCC2)cc1NC(=O)Cn1c(=O)ccn(Cc2ccccc2)c1=O | inactive
CCc1cccc2c(C(=O)COC(=O)c3c(C)noc3C)c[nH]c12 | inconclusive [inhibitor, partial curve]
CC1(c2ccc(Cl)cc2)NC(=O)N(CC(=O)NCCC2=CCCCC2)C1=O (centres undefined) | inconclusive [inhibitor, single point]
CCCN(CCC)CCNC(=O)c1cc2c(=O)n(CC)c3ccccc3c2s1 | inconclusive [inhibitor, full curve]
CCN1CCc2nc3ccccc3c(C(=O)Nc3ccc(NC(C)=O)cc3)c2C1 | inactive
CCc1ccc2c(Cl)c(C(=O)N/N=C/c3c[nH]c4ccccc34)sc2c1 | inconclusive [inhibitor, single point]
CCc1ccccc1OCC(=O)NNCC(=O)Nc1cccc(C#N)c1 | inconclusive [inhibitor, single point]
COc1cc(/C=N/NC(=O)c2c(C)nnn2-c2nonc2N)ccc1O | inconclusive [inhibitor, single point]
COc1ccc(-c2cc(C(F)F)n3ncc(C(=O)N4CCc5ccccc54)c3n2)cc1 | inconclusive [inhibitor, partial curve]
COc1ccccc1C(CCNCc1ccccc1)c1ccc(OC(C)C)cc1 (centres undefined) | inconclusive [inhibitor, single point]
[O-][n+]1onc2c1CCc1nnc(-c3ccccc3)cc1-2 | inconclusive [inhibitor, partial curve]
CC(C)c1c(C(=O)N/N=C/c2cccc3ccccc23)nnn1-c1nonc1N | inconclusive [inhibitor, partial curve, poor fit]
COc1cc(C)c(CN2CCN(C(C)C(=O)NC(C)c3ccccc3)CC2)cc1OC (centres undefined) | inconclusive [inhibitor, single point]

SMILES | Potency
CCCn1c(NCc2c[nH]c3ccccc23)nc2ccccc21 | inconclusive [inhibitor, single point]
c1ccc(CCNCc2ccco2)nc1 | inactive
CC(=O)C[C@H](O)CC(=O)[C@H]1OC(=O)[C@@H](C)CCCCc2ccccc21 | inconclusive [inhibitor, single point]
N#Cc1ccc(-c2cccnc2)nc1SCC(=O)Nc1sc2c(c1C#N)CCC2 | inconclusive [inhibitor, full curve, poor fit]
COc1cc(CCC(=O)Nc2nnc(C)s2)cc(OC)c1OC | inconclusive [inhibitor, partial curve]
COCCOC(=O)C1=C(C)NC(=S)NC1c1ccc(OCC(=O)N2CC(C)OC(C)C2)c(OC)c1 (centres undefined) | inactive
CCOc1cc(S(=O)(=O)Nc2ccc(CC)cc2)ccc1Cl | inactive
CCNc1nc(SCc2ccccc2)nc(N2CCOCC2)n1 | active: 5.62 µM
COC(=O)c1cc(CN2CCN(c3ccccc3C)CC2)ccc1O | inconclusive [inhibitor, single point]
c1ccc2c(C3=NNC(=NC4CC4)SC3)c[nH]c2c1 | inactive
O=C(NCc1cccnc1)Nc1ccccc1C(F)(F)F | inactive
COc1ccccc1CNC(=O)Cn1ccc2cc(S(=O)(=O)N3CCCC3)ccc21 | inconclusive [inhibitor, single point]
Cc1nc(-c2ccc(NC(=O)C(C)(C)C)cc2)c(-c2ccccc2)o1 | inconclusive [inhibitor, single point]
O=C(Nc1ccccc1Br)c1cc(=O)c2ccccc2o1 | inactive
O=C(/C=C/c1ccccc1)NC(NC(=S)Nc1cc(Cl)ccc1Cl)C(Cl)(Cl)Cl (centres undefined) | inconclusive [inhibitor, partial curve]
Cc1c(OCC(=O)NCCN2CCOCC2)ccc2c1oc(=O)c1ccccc12 | inconclusive [inhibitor, single point]
CCCN(CCC)C(=O)CSc1nc2n[nH]c(C)c2c(=N)n1-c1ccc(OCC)cc1 | inconclusive [inhibitor, partial curve]
CCN1C(=O)N[C@@H](c2cccc(C(F)(F)F)c2)[C@@H](C(=O)OC)[C@H]1C | inactive
COc1ccccc1-c1oc2ccccc2c1C#CCCCCO | inconclusive [inhibitor, single point]
CCOC(=O)CSc1nc2c(sc(=S)n2-c2ccc(OCC)cc2)c(=O)[nH]1 | inactive
CCCn1nnc(NC(=O)c2cccc(Cl)c2)n1 | inactive
CCCCNc1c(-c2cccc(-c3cc(C(C)=O)cs3)c2)nc2cc(C)ccn12 | inconclusive [inhibitor, single point]
COC(=O)c1ccc(CNC(=O)COC(=O)CCN2C(=O)C3CC=CCC3C2=O)cc1 (centres undefined) | inconclusive [inhibitor, single point]

SMILES | Potency
O=C(Nc1cccc2c1CCCC2)C1CCN(c2nnnn2-c2ccccc2)CC1 | inconclusive [inhibitor, partial curve, poor fit]
CC1CCN(c2ccc3nnc(CCC(=O)N4CCN(c5ccc(F)cc5)CC4)n3n2)CC1 | inconclusive [inhibitor, partial curve]
O=C(c1cn(Cc2ccccc2)c2ccccc12)C1CC1 | inconclusive [inhibitor, single point]
COc1ccc(NC(=O)c2[nH]c(C)c(C(C)=O)c2C)cc1Cl | inconclusive [inhibitor, full curve]
O=[N+]([O-])c1cc(S(=O)(=O)NC2=NCCCCC2)ccc1Cl | inconclusive [inhibitor, single point]
CC(C)CCNC(=S)Nc1ccc(Br)cc1 | inactive
CCCCn1c(N)c(C(=O)OCC2CCCO2)c2nc3ccccc3nc21 (centres undefined) | inconclusive [inhibitor, partial curve]
CC1Sc2ccc(C(=O)NCc3cccc(C(F)(F)F)c3)cc2NC1=O (centres undefined) | active: 22.4 µM
COc1ccc(N2CCN(C(=O)CCNS(=O)(=O)c3cc(Br)cnc3N)CC2)cc1 | inactive
Cc1cccc(OCCNc2ccc([N+](=O)[O-])cn2)c1 | inconclusive [inhibitor, partial curve]
Cc1ccc(-c2cc(C(=O)N/N=C/c3c[nH]c4ccccc34)[nH]n2)cc1 | inconclusive [inhibitor, partial curve]
O=C(Nc1ccc(NC(=O)C2CC2)cn1)c1ccccc1 | inactive
N#CC1=C(N)Oc2cc(O)c(Cl)cc2C1c1ccccc1F (centres undefined) | inconclusive [inhibitor, single point]
CCOc1ccc(CCNC(=O)CN2CCN(Cc3ccccc3C)C2=O)cc1OCC | inconclusive [inhibitor, full curve, poor fit]
Oc1c(C(c2ccccc2Cl)N2CCCC2)ccc2cccnc12 (centres undefined) | active: 10 µM
N#Cc1cnn2ccc(-c3ccc4c(c3)CCC4)nc12 | inactive
COc1cccc(/C=C/C(=C2/C(=O)N(c3ccccc3)N=C2C)c2ccc(C)cc2)c1OC | inactive
COC(=O)C1=C(O)/C(=C\c2ccc(CNC(=O)C(=O)Nc3ccc(C)c(C)c3)o2)N=C1C | inactive
CCCN(CCC)Cc1c(C(=O)N/N=C/c2ccncc2)nnn1-c1nonc1N | inactive
CCc1ccc(NC(=O)CSc2nnc(-c3cnccn3)n2Cc2ccco2)cc1 | inconclusive [inhibitor, single point]
CC(C)NC(=O)c1c(CSc2ccc(Cl)cc2)noc1C(=O)NCc1ccccc1 | inconclusive [inhibitor, partial curve]
O=C(c1cn(-c2ccccc2)nc1-c1cccs1)N1CCN(c2ccccn2)CC1 | inconclusive [inhibitor, single point]
COC(=O)c1sccc1NC(=O)c1ccc(Cl)s1 | inconclusive [inhibitor, single point]

Source: PubChem BioAssay AID651820 (National Center for Advancing Translational Sciences (NCATS), 2012)
